The results in this text go back to article PMC6919601, “Identification of Plasmodium dipeptidyl aminopeptidase allosteric inhibitors by high throughput screening” (PLoS ONE, 2019).

Each structure is given as a SMILES string. About 230 (0.21%) of roughly 110,000 compounds showed an effect of 50% or more. The list shows a part of the results.
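Also: 30 min substrate incubation versus DMSO and 10 µM JCP410 controls.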

This assay deals with DPAP1 (Plasmodium falciparum, UniProt Q8IIJ9). Nature of the assay: primary screen, percent inhibition; read by cleavage of a fluorogenic dipeptide substrate; higher = more effect of the substance. Also on record: species or system P. falciparum D10 trophozoite lysates; single well.
Chain of DPAP1 (Q8IIJ9 whole entry, looked up): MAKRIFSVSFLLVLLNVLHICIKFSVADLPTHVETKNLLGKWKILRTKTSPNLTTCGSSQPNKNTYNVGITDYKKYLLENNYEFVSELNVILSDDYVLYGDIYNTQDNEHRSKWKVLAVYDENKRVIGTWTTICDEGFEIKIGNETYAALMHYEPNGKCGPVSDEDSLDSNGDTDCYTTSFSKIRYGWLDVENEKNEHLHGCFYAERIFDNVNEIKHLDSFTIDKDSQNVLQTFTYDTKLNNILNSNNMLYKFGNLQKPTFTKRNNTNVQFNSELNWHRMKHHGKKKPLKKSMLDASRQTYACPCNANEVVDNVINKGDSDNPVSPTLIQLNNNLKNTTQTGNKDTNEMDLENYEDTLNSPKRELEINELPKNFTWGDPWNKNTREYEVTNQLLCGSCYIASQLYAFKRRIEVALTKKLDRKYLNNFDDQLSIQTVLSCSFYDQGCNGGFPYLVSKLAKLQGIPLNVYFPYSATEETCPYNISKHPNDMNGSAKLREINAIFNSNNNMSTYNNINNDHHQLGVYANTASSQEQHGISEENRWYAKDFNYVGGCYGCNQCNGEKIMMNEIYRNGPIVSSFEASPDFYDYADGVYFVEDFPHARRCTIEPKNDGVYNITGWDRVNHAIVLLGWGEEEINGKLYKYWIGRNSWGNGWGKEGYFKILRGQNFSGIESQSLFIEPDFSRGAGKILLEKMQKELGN
Consider `O=C(CCN1N=C(c2ccccc2)CCC1=O)NCC1COc2ccccc2O1` (centres unmarked), for which the “% Inhibition @ 10 uM” value amounted to 2.35%.

Turning to `Cc1cc(OCC(=O)Nc2ccccc2C(N)=O)c(C(C)C)cc1Br`, the “% Inhibition @ 10 uM” value is recorded as -1.02%.

For the compound `CCO/C(O)=C1\C(C)=Nc2nnnn2C1c1ccc(OCc2ccc(C)cc2)cc1` (centres unmarked), the “% Inhibition @ 10 uM” value was determined as 3.6%.

`Oc1nc(-c2ccccc2)c2ccccc2n1`: the “% Inhibition @ 10 uM” value is listed as 0.247%.

As for `c1ccc2c(CN3CCOCC3)csc2c1`, the “% Inhibition @ 10 uM” value turned out to be 20.5%.

In the case of `CCn1c(C(=O)N2CCCC(C(=O)NC3CCC(C)CC3)C2)cc2sccc21` (centres unmarked), the “% Inhibition @ 10 uM” value was -6.77%.

As to `CCCOC(=O)c1c(N)sc2c1CCC(C)C2` (centres unmarked), the “% Inhibition @ 10 uM” value came out at 33%.

Regarding `COc1cc(C2C(C#N)=C(N)N3C(=O)c4ccccc4SC3=C2C#N)cc(OC)c1OC` (centres unmarked), the “% Inhibition @ 10 uM” value is -0.92%.

Take `COc1cccc(C2=NOC(C(=O)N3CCN(C(c4ccccc4)c4ccccc4)CC3)C2)c1OC` (centres unmarked): the “% Inhibition @ 10 uM” value amounted to 4.41%.

`COc1ccc(C)cc1NC(=O)CNS(=O)(=O)c1ccccc1`: the “% Inhibition @ 10 uM” value turned out to be 0.812%.

With `COc1ccc(-c2onc(C)c2C)cc1S(=O)(=O)N1CCC(CN2CCc3ccccc3C2)CC1`, the “% Inhibition @ 10 uM” value was determined as 5.98%.

In the case of `Cc1ccc(NC(=O)CN2C(=O)S/C(=C/c3ccncc3)C2=O)cc1`, the “% Inhibition @ 10 uM” value is given as 12.4%.

For `CC(C)CC(=O)Nc1cccc(-c2cn3ccsc3n2)c1`, the “% Inhibition @ 10 uM” value was -0.587%.

Consider `COc1ccc(CSc2nc(N)c3c4c(sc3n2)COC(C)(C)C4)cc1`, for which the “% Inhibition @ 10 uM” value is on record as -0.386%.

In the case of `COC(=O)C1=CN(Cc2ccc(OC)c(OC)c2)C=C(C(=O)OC)C1c1ccccc1Cl`, the “% Inhibition @ 10 uM” value was determined as 0.219%.

As to `CCC(CC)COC(=O)C1=C(C)NC(=O)CC1c1cccc(Cl)c1` (centres unmarked), the “% Inhibition @ 10 uM” value is 8.46%.

Take `Cc1cc(Br)ccc1OCC(=O)N1CCCc2ccccc21`: the “% Inhibition @ 10 uM” value was -0.95%.

On to `COc1ccc(CN2CCC(Cc3ccccc3)CC2)cc1OC`, for which the “% Inhibition @ 10 uM” value is on record as 4.73%.

As to `O=C1c2ccccc2-c2nc3cc(Br)cnc3nc21`, the “% Inhibition @ 10 uM” value is -1.26%.

As to `c1cc2n(c1)CCNC2`, the “% Inhibition @ 10 uM” value is on record as 4.73%.

Take `CCCc1c(O)nc(Nc2nc(C)c3cc(C)cc(C)c3n2)nc1O`: the “% Inhibition @ 10 uM” value was found to be 1.52%.

In the case of `COC(=O)c1cnn2c3c(c(C)nc12)CCCC3`, the “% Inhibition @ 10 uM” value was -2.14%.

As for `COCCNC(=O)c1ccc(CS(=O)(=O)c2ccc(OC)cc2)o1`, the “% Inhibition @ 10 uM” value was determined as 2.14%.

For the compound `Cc1ccc(-n2c3c(c(=O)[nH]c2=O)C(NC(=O)CCc2ccccc2)(C(F)(F)F)C(=O)N3)cc1` (centres unmarked), the “% Inhibition @ 10 uM” value came out at 2.49%.

With `COc1ccc(S(=O)(=O)N(Cc2ccccc2)C(C)C)cc1`, the “% Inhibition @ 10 uM” value came out at 0.247%.

Take `Oc1nc(N2CCOCC2)nc2ncn(Cc3ccccc3)c12`: the “% Inhibition @ 10 uM” value was -3.52%.

As to `CCOc1ccc(S(=O)(=O)N(CC(=O)N[C@@H]2C[C@H]3CC[C@@H]2C3)c2ccc(C)cc2)cc1`, the “% Inhibition @ 10 uM” value is 3.09%.

Consider `O=C(C1=C(O)C(=O)N(c2nccs2)C1c1ccccc1F)c1ccccc1` (centres unmarked), for which the “% Inhibition @ 10 uM” value is -10.9%.

For the compound `Cc1cccn2c(=O)c3cc(C(=O)NCc4cccnc4)n(C)c3nc12`, the “% Inhibition @ 10 uM” value amounted to 0.331%.

`CCCCNC(=O)CN1CCN(Cc2cccc(Cl)c2)C1=O`: the “% Inhibition @ 10 uM” value was -4.16%.

On to `O=C(CCN1C(=O)c2ccccc2Sc2ncccc21)NC1CCCCCC1`, for which the “% Inhibition @ 10 uM” value is listed as -4.76%.

`O=S(=O)(Cc1ccccc1Cl)N1CCOC(COc2ccccc2)C1` (centres unmarked): the “% Inhibition @ 10 uM” value was 0.895%.

In the case of `N#Cc1c(O)nc(O)c2c1CCN(Cc1ccccc1)C2`, the “% Inhibition @ 10 uM” value is listed as 5.31%.

Regarding `COc1ccc(C2C(C#N)=C(N)OC3=C2C(=O)CC(C)(C)C3)cc1C` (centres unmarked), the “% Inhibition @ 10 uM” value is on record as -4.94%.

As for `CCCCN(CCCC)CCn1cnc2c3ccc(OC)cc3nc-2c1O`, the “% Inhibition @ 10 uM” value is reported as -0.0235%.

With `O=C1/C(=C/c2ccco2)Cc2ccccc21`, the “% Inhibition @ 10 uM” value was determined as 8.24%.

As for `O=C(CSc1nnc(-c2ccco2)o1)c1ccc(Br)cc1`, the “% Inhibition @ 10 uM” value is reported as -8.04%.

Turning to `Cn1c(=O)[nH]c(=O)c2c1nc(Sc1nc3ccccc3[nH]1)n2CCCc1ccccc1`, the “% Inhibition @ 10 uM” value is on record as 9.89%.

With `COc1ccc(CCNCc2cc3ccc(C)cc3nc2O)cc1OC`, the “% Inhibition @ 10 uM” value is reported as -0.946%.

On to `CCN1C(=O)N/C(=C/c2ccc(N(C)C)cc2)C1=O`, for which the “% Inhibition @ 10 uM” value is on record as -21.3%.

As for `CCNC(=S)N1CCc2cc(OC)c(OC)cc2C1COc1ccc(OC)cc1` (centres unmarked), the “% Inhibition @ 10 uM” value is -0.363%.

Regarding `O=C(O)c1ccccc1C(=O)Nc1cc([N+](=O)[O-])ccc1Cl`, the “% Inhibition @ 10 uM” value is recorded as -0.969%.

As to `CC1CC(C)CN(c2nc3c(c(=O)[nH]c(=O)n3C)n2CCSc2nc3ccccc3o2)C1` (centres unmarked), the “% Inhibition @ 10 uM” value amounted to 2.06%.

`CC(C)C[C@H](NC(=O)c1nccc2ccccc12)C(=O)NCC#N`: the “% Inhibition @ 10 uM” value is -5.64%.

`COc1ccc(OC)c(C2C3=C(O)CC(C)(C)CC3=Nc3nc(SC)nn32)c1` (centres unmarked): the “% Inhibition @ 10 uM” value is given as -11.1%.

With `COc1ccc(N(CC(=O)Nc2cc(C)ccc2C)S(=O)(=O)c2ccccc2)cc1`, the “% Inhibition @ 10 uM” value is listed as 0.324%.

Regarding `O=C(NCCCN1CCOCC1)c1cc(-c2ccc(Br)cc2)nc2ccccc12`, the “% Inhibition @ 10 uM” value is -1.1%.

As for `CC(C)(NC(=O)[C@H](CS(=O)(=O)Cc1ccccc1OC(F)F)NC(=O)N1CCOCC1)C(=O)c1nc2ncccc2o1`, the “% Inhibition @ 10 uM” value is reported as -5.2%.

For the compound `c1coc(-c2nc3ccccc3nc2-c2ccco2)c1`, the “% Inhibition @ 10 uM” value came out at 3.32%.

With `Cn1ncc(Cl)c1C(=O)NC12CC3CC(CC(C3)C1)C2`, the “% Inhibition @ 10 uM” value is given as -3.19%.

Turning to `COc1ccc2c(Sc3ccc(C)cc3)c(C(=O)NCCCOC(C)C)[nH]c2c1`, the “% Inhibition @ 10 uM” value is listed as 3.39%.

As for `CCOc1ccc(CNCc2c(C(=O)O)c(C)n(Cc3ccccc3F)c2C)cc1`, the “% Inhibition @ 10 uM” value is recorded as -0.439%.

With `CCOC(=O)c1[nH]c2ccccc2c1NC(=O)c1cc2ccccc2oc1=O`, the “% Inhibition @ 10 uM” value amounted to 2.17%.

Regarding `CCOC(=O)C1=C(C)N=c2s/c(=C\c3ccc(F)cc3)c(=O)n2C1c1ccccc1Cl` (centres unmarked), the “% Inhibition @ 10 uM” value is -7.19%.

Regarding `CC(=O)c1c(CN(C)C23CC4CC(CC(C4)C2)C3)nc2n(Cc3ccccc3)c3ccccc3n12`, the “% Inhibition @ 10 uM” value is -4.11%.

Turning to `CCCCN(Cc1ccccc1)Cc1cc(OC)c(OC)cc1[N+](=O)[O-]`, the “% Inhibition @ 10 uM” value is given as -3.57%.

As to `Cc1ccnc(NC(=O)Cn2cc(S(=O)(=O)N3CCCC3)c(S(=O)(=O)N3CCCC3)c2)c1`, the “% Inhibition @ 10 uM” value is given as -6.07%.

Consider `O=C(c1ccccc1)N1CCN(c2nc3c(O)ncnc3[nH]2)CC1`, for which the “% Inhibition @ 10 uM” value is -5.11%.

With `CN(C)c1ccc(C2=NN(c3ccc([N+](=O)[O-])cc3)C(c3ccccc3)C2)cc1` (centres unmarked), the “% Inhibition @ 10 uM” value was -5.96%.

In the case of `CCn1cc(C2=NOC(C(=O)NCc3ccccc3)C2)c(C)n1` (centres unmarked), the “% Inhibition @ 10 uM” value was -1.37%.

In the case of `Cc1ccc(CNC(=O)c2cnn3c(O)cc(CSc4ccc(Cl)cc4)nc23)cc1`, the “% Inhibition @ 10 uM” value is reported as -5.8%.

Consider `O=C(NCCN1CCOCC1)c1cc2nc(-c3ccccc3)cc(-c3ccccc3)n2n1`, for which the “% Inhibition @ 10 uM” value is on record as 0.221%.
